# Data from PMC7819943, “Rice protein-binding microarrays: a tool to detect cis-acting elements near promoter regions in rice”.
# The other results are listed elsewhere or left out.
# Target: T1, OsWOX13 (Oryza sativa, UniProt Q5QMM3 1-267)
# T1 sequence: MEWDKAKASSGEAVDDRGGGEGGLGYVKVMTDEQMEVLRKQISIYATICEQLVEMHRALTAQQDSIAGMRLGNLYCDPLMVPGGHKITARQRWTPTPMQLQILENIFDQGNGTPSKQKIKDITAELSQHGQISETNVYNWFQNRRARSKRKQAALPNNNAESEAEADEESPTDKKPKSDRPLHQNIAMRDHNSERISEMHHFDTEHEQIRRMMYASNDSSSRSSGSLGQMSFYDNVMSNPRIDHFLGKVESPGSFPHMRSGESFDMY
# Assay: protein-binding microarray (RPBM); PBS, 2% BSA, 51.3 ng/ul salmon testes DNA, 50 uM zinc acetate, 200 nM TF, 25 C, 1 h; high values mean tight binding
# Details: protein: recombinant; tags: N-terminal polyhistidine and DsRed monomer fusion (pET32a); label: CyDye5-dUTP incorporated in the synthesized complementary strand; 3' TTTTT single-stranded linker to array surface; dsDNA, one strand shown
# Outline: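 Transcription factors were each fused at the N-terminus to a polyhistidine tag plus DsRed and expressed in E. coli BL21-CodonPlus before Ni–NTA purification. Binding to a double-stranded custom Agilent array was carried out with 200 nM protein at 25 °C for 1 h in PBS, 2% BSA, salmon testes DNA and 50 µM zinc acetate. The binding signal is per-feature fluorescence intensity, in arbitrary units, on an Axon 4000B scanner.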
row,Sequence,binding signal
1,AATGATTGAACGATCTCAAATCTGCTTAAATCATGTGCTACGGAGTCACCTAGTGCAG,35700 fluorescence intensity (a.u.)
2,TAATAATTAAACATGAAATTAATTAAGTCATATGTGCATACGGAGTCACCTAGTGCAG,22900 fluorescence intensity (a.u.)
3,CCCCTAGATTATTATATTTTAGATAATCTATTTTAGAACGCGGAGTCACCTAGTGCAG,8660 fluorescence intensity (a.u.)
4,TGTGGTAACATAATAAATTTATAATGCCATACTAATAGGACGGAGTCACCTAGTGCAG,5340 fluorescence intensity (a.u.)
5,TATATATATATATATATATGATATGTAGGACCAATTATCACGGAGTCACCTAGTGCAG,13700 fluorescence intensity (a.u.)
6,AATTTGAATTGCTAATTAAATGGAGATTTGGCTAAATAGACGGAGTCACCTAGTGCAG,16200 fluorescence intensity (a.u.)
7,CGCTCAATTCCGCTTTAATTTGGTGACTTGGCGATCGATCCGGAGTCACCTAGTGCAG,6150 fluorescence intensity (a.u.)
8,AGTTTAATAATATAGGCAATTACTAACTCCAAAGATTAACCGGAGTCACCTAGTGCAG,3680 fluorescence intensity (a.u.)
9,ATTAATCATGTTTTATCATCTAATAACAATGAAAATACGACGGAGTCACCTAGTGCAG,3330 fluorescence intensity (a.u.)
10,CTGAGAAAGTTTCAATTACTAATTATGTGAAAACAAAGAACGGAGTCACCTAGTGCAG,4770 fluorescence intensity (a.u.)
11,TCTTTATTTCTTGTTGATTGCAGGATCAAATCAACTAGCACGGAGTCACCTAGTGCAG,13300 fluorescence intensity (a.u.)
12,CATATAAATTGAATTAGAGCTATTACCTCATGAGGGGCTTCGGAGTCACCTAGTGCAG,39100 fluorescence intensity (a.u.)
13,CTTAAATTAAGGTACGTTAGGTGAAGATAGTTGACGGTTACGGAGTCACCTAGTGCAG,9870 fluorescence intensity (a.u.)
14,CTCTTAAATTAAATTTGAGAATAAACTTTTGGATTAAAATCGGAGTCACCTAGTGCAG,5180 fluorescence intensity (a.u.)
15,AAGAATAGTTAATTTCCATCTCGGTATCCTTTAACAATTGCGGAGTCACCTAGTGCAG,5890 fluorescence intensity (a.u.)
16,CGAATAAACAAATTATAATGATATTTATCTGAAATAACATCGGAGTCACCTAGTGCAG,3870 fluorescence intensity (a.u.)
17,TTAATTAATAATATGTTAATGATTTTCTCATCTTACCTTACGGAGTCACCTAGTGCAG,13400 fluorescence intensity (a.u.)
18,TATATGTATAAATTTATTGTAACATTCTAATACGAGGTTGCGGAGTCACCTAGTGCAG,3690 fluorescence intensity (a.u.)
19,TGAATTTATCCTAAATTAGGGTACTGCAAATTAAAGTTGGCGGAGTCACCTAGTGCAG,6100 fluorescence intensity (a.u.)
20,AAGGTGACGTCAATTTTAACATGAATATGACGTCATTACTCGGAGTCACCTAGTGCAG,5610 fluorescence intensity (a.u.)
21,TTAATTAATCATGTGCTAATCCTCGCTCCATTTTACGTGTCGGAGTCACCTAGTGCAG,30300 fluorescence intensity (a.u.)

row,Sequence,binding signal
1,GCTAATTGCAATTTTGGCCGTCCATAAAGAGCTTGCGGCCCGGAGTCACCTAGTGCAG,52900 fluorescence intensity (a.u.)
2,AAAATAAATCTAGATTTTCTTTTATCTAAACTTCCAGCTACGGAGTCACCTAGTGCAG,3230 fluorescence intensity (a.u.)
3,CAGACCAAGAAATAATTATTATCATCTTATAGGTGGATCACGGAGTCACCTAGTGCAG,3990 fluorescence intensity (a.u.)
4,ACCTCCACTACTTATCCAATCACAATCTTTCACCACTCACCGGAGTCACCTAGTGCAG,4890 fluorescence intensity (a.u.)
5,TTGATTTGGAACGTGGATTTTCCTCCCCAAATAAACATTGCGGAGTCACCTAGTGCAG,8450 fluorescence intensity (a.u.)
6,ATTGAAGAAGTTGATTGGGGACCAAACCAAGACCTTCTCCCGGAGTCACCTAGTGCAG,26600 fluorescence intensity (a.u.)
7,AATATCCTATTAATTGAGCCCTACTCGAGCGCTAGGCTTACGGAGTCACCTAGTGCAG,5050 fluorescence intensity (a.u.)
8,AGAGAAATTAATCAAGTCAGAACCACCAGTGATTCACCCCCGGAGTCACCTAGTGCAG,5660 fluorescence intensity (a.u.)
9,GGGCCCAGGAATAGATTGGTGTCCGGCTGTCCGCGCCGCACGGAGTCACCTAGTGCAG,3390 fluorescence intensity (a.u.)
10,GGGATTAGGGATTGTTTGTTACTTTGTACGTCTCCTAATACGGAGTCACCTAGTGCAG,3840 fluorescence intensity (a.u.)
11,GTGTTGAATGCACTGATTTGTTCAGTGTCTGAGATTGATGCGGAGTCACCTAGTGCAG,13100 fluorescence intensity (a.u.)
12,GAGTAGCTAATTAACTAGAGTTATTCTTCTACCTAACCAGCGGAGTCACCTAGTGCAG,10600 fluorescence intensity (a.u.)
13,ATGATAGATTATTATAATTTATAAGTAAGATTACTATAATCGGAGTCACCTAGTGCAG,35100 fluorescence intensity (a.u.)
14,CGCGTAATTTACTCACAGTCACCAGTCCGTGCCGATGCAGCGGAGTCACCTAGTGCAG,28800 fluorescence intensity (a.u.)
15,TTACTATTAATTGGATTATATAGTGGTTATGGGTTTGTGTCGGAGTCACCTAGTGCAG,34200 fluorescence intensity (a.u.)
16,CAGGCTGCTTAATTACATATATCTAGATATATATATTATTCGGAGTCACCTAGTGCAG,3870 fluorescence intensity (a.u.)
17,TTTATCTAATCATTTTAGTTTAGACTAGTTAATGTTACCTCGGAGTCACCTAGTGCAG,7390 fluorescence intensity (a.u.)
18,CACGTTGACCATAATGATTTAGTACCATATACGATAATACCGGAGTCACCTAGTGCAG,3520 fluorescence intensity (a.u.)
19,CTGATTACTATAATCGTACTTACTTCCAGCGATTAGCGTCCGGAGTCACCTAGTGCAG,24500 fluorescence intensity (a.u.)
20,CAATAAAACAAATTATAGATTATGCCTGTAAACGGTAAGACGGAGTCACCTAGTGCAG,7440 fluorescence intensity (a.u.)
21,GGATAAATTTCAGTAGACAGCAAATGGGAACATTTTGATACGGAGTCACCTAGTGCAG,7760 fluorescence intensity (a.u.)
